According to publication PMC6919601, “Identification of Plasmodium dipeptidyl aminopeptidase allosteric inhibitors by high throughput screening” (PLoS ONE, 2019):
Hit rate of the full screen: of about 110,000 compounds, about 230 (0.21%) showed an effect of 50% or more. This is one part of the list.

biological target: DPAP1 (Plasmodium falciparum, UniProt Q8IIJ9); test: primary screen, percent inhibition; read by cleavage of a fluorogenic dipeptide substrate; higher = more effect of the substance; design: species or system P. falciparum D10 trophozoite lysates; single well
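Note: 30 min substrate incubation versus DMSO and 10 µM JCP410 controls.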

Chain of DPAP1 (Q8IIJ9 whole entry, looked up): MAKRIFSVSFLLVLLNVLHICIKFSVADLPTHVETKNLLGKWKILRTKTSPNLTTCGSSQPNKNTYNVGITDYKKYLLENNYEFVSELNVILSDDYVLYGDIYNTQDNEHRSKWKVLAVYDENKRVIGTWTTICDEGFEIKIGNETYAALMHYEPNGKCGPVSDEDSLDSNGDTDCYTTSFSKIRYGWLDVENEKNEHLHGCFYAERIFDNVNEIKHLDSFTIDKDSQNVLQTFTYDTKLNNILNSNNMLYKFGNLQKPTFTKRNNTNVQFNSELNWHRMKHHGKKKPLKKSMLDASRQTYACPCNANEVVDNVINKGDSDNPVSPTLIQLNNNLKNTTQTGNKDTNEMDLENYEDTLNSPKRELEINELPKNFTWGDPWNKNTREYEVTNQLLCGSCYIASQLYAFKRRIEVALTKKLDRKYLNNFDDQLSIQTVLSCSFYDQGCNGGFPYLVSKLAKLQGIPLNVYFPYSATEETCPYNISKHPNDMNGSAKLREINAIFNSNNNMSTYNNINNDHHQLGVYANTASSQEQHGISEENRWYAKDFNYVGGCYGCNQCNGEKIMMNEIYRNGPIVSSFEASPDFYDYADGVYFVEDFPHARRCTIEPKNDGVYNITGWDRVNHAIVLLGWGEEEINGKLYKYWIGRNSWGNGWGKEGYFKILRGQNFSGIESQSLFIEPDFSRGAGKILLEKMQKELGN

Row | SMILES | % Inhibition @ 10 uM
1 | CCc1ccccc1NC(=O)c1ccccc1C(=O)O | -1.29%
2 | Cc1ccc(CSc2nc3cccnc3n2Cc2cc(=O)n3ccccc3n2)cc1 | -0.35%
3 | CCN(CC)c1ccc2nonc2c1[N+](=O)[O-] | 0.962%
4 | COC(=O)c1ccc(NC(=O)CN2C(=O)c3ccccc3C2=O)cc1 | -6.82%
5 | Fc1ccc(CNc2ccc(CNc3nc[nH]n3)cc2)cc1 | 1.84%
6 | Cn1c(=O)c2c(ncn2CCCOC(c2ccc(F)cc2)c2ccc(F)cc2)n(C)c1=O | 1.89%
7 | O=C1c2ccccc2C(=O)N1CCCc1nc(-c2ccc(Cl)cc2)no1 | -1.11%
8 | Cc1nn(CC(=O)N(C)Cc2ccccc2)c(=O)c2cccn12 | -3.93%
9 | Cc1nn(CC(=O)NCC2CCCO2)c(=O)c2cccn12 (stereo not drawn) | -0.542%
10 | CC(Cc1ccc(OCCN(C)C)cc1)N(C)C (stereo not drawn) | -1.91%
11 | Cc1nnc(N2C(=O)c3oc4ccccc4c(=O)c3C2c2ccccc2)s1 (stereo not drawn) | -1.86%
12 | COc1ccccc1OCC(=O)Nc1cccc(N(C)S(C)(=O)=O)c1 | -15.4%
13 | CCOC(=O)N1CCN(C(=O)c2cc3c(s2)-c2c(C)cccc2OC3)CC1 | -1.58%
14 | CC1=C(C(=O)OCC(F)(F)F)C(c2ccc(Cl)cc2)NC(=O)N1 (stereo not drawn) | 5.92%
15 | Cc1cc(C)nc(/N=C(\N)Nc2cccc(OCc3ccccc3)c2)n1 | -1.02%
16 | COc1cc(C(=O)Nc2nn3c(C)nnc3s2)cc(OC)c1OC | 1.1%
17 | COc1ccc(C(=O)NCCCn2ccnc2)cc1 | 3.87%
18 | CCOc1ccc(-c2[nH]nc3c2C(c2sccc2C)C(C#N)=C(N)O3)cc1 (stereo not drawn) | -0.968%
19 | C=CCOc1ccc(CNc2ccccc2Cl)cc1OC | 1.19%
20 | COc1ccc(C2NCCC3(O)CCCCC23)c(OC)c1C (stereo not drawn) | 3.15%
21 | COc1ccccc1-n1c(O)cc(=O)[nH]c1=S | -1.62%
22 | CC(C)CNC(=O)CN(c1cccc2ccccc12)S(C)(=O)=O | 0.793%

Row | SMILES | % Inhibition @ 10 uM
23 | Cc1ccc(N(C)C(=O)N2CCN(S(=O)(=O)c3ccc(C)c(C)c3)CC2)cc1 | -3.18%
24 | CCN(CC)C(=O)c1ccc(/C=C/c2c[nH]c3ccccc23)[n+](C)c1 | -0.0959%
25 | CCCCOc1ccc(NS(=O)(=O)c2c(C)nc(O)nc2O)cc1 | 5.03%
26 | Clc1ccc(NCn2nnc3ccccc32)nc1 | 2.09%
27 | Cc1cccc(NC(=O)CN2C(=O)N/C(=C/c3cc(C)n(-c4ccc5c(c4)OCO5)c3C)C2=O)c1 | 14.8%
28 | CC(C)C1C(c2ccccc2)NC(c2ccccc2)CC1(C)O (stereo not drawn) | -0.996%
29 | CC(C)COc1ccc(C(CC(=O)O)C(=O)O)cc1 (stereo not drawn) | 0.0069%
30 | CCCCN(CCC(=O)O)CP(C)(=O)O | -1.59%
31 | OCC/N=c1\cc(-c2ccccc2)oc2ccc(Cl)cc12 | 0.561%
32 | O=C(Cc1ccc(-c2ccccc2)cc1)Nc1cc(Cl)ccc1Cl | -0.636%
33 | O=C1NC(=O)C(C2CCCCC2)C(=O)N1 | 2.58%
34 | Oc1ccc(Cl)cc1-c1csnn1 | 1.81%
35 | COc1ccccc1-c1cc(C(=O)N2CCOCC2)no1 | 4.5%
36 | COc1cc(CNc2cccc(Cl)c2)ccc1OCC(=O)NC(C)(C)C | 2.01%
37 | CSCCC(NC(=O)C1CCC(C)CC1)C(=O)NC1CCN(Cc2ccccc2)CC1 (stereo not drawn) | -4.86%
38 | O=C(Nc1ccc2c(c1)Nc1ccccc1CC2)c1ccccc1 | -0.591%
39 | CCOc1ccc2[nH]c(SCCc3ccccc3)nc2c1 | -5.15%
40 | CN1C(C(=O)NCC23CC4CC(CC(C4)C2)C3)=CC(c2ccco2)=NS1(=O)=O | -2.84%
41 | O=C(CSc1nc[nH]n1)c1ccccc1 | 1.63%
42 | COc1ccc(CN2CCN(c3cccc(C(F)(F)F)c3)CC2)cc1Br | 1.27%
43 | O=C1CC(NCCc2ccc(Cl)cc2Cl)C(=O)N1c1ccccc1 (stereo not drawn) | -4.15%
44 | OC(CCCN1CCC(O)(c2ccc(Cl)cc2)CC1)c1ccc(F)cc1 (stereo not drawn) | -0.95%

Row | SMILES | % Inhibition @ 10 uM
45 | CC(=O)c1cc(-c2ccc(F)cc2)n(CCC(=O)NC(C)(C)C)c1C | -1.88%
46 | Cc1ncc2[nH]c3ccccc3c2c1C(=O)O | -5.44%
47 | O=C(Nc1cccnc1)c1ccc(COc2cc(Cl)ccc2Cl)o1 | 3.72%
48 | Cc1cc(Cl)ccc1OCC(=O)N[C@@H](C)c1ccccc1 | 2.13%
49 | COc1ccc2c(c1)c(=O)oc1c(C)c(OC(C)C(=O)O)ccc12 (stereo not drawn) | -3.41%
50 | Cc1ccc(S(=O)(=O)N2CCCC(C(=O)Nc3nc4c(s3)C(=O)CC(C)(C)C4)C2)cc1 (stereo not drawn) | 2.29%
51 | Cc1cc(-c2ccc(C(=O)N[C@@H](CC(C)C)C(=O)NCC#N)cc2)ccc1F | -8.26%
52 | CCN(CC)c1ccc(/C=C2\N=C(SC)SC2=O)cc1 | -4.41%
53 | O=C(O)c1cc2nc(-c3cccs3)cc(C(F)(F)F)n2n1 | 0.215%
54 | N#CC1=C(N)Oc2c(c(O)nc3ccccc23)C1c1ccc(-c2ccccc2)cc1 (stereo not drawn) | 7.37%
55 | O=C(NCc1ccccc1Cl)C1CCCN(S(=O)(=O)N2CCCCC2)C1 (stereo not drawn) | -8.85%
56 | Cc1cc(C(F)(F)F)n2nc(C(=O)O)cc2n1 | -1.2%
57 | COc1ccccc1N(CC(=O)NC(C)C)S(=O)(=O)c1ccccc1 | 5.07%
58 | COc1ccc(OCCCN2CCCC2)cc1 | 2.41%
59 | COc1ccc(C(=O)Nc2ccccc2C(=O)NCc2ccc(Cl)cc2)cc1 | -3.65%
60 | N#C[C@H](Cc1ccc(O)cc1)NC(=O)[C@H](CC1CCCCC1)NC(=O)OCc1ccccc1 | -1.41%
61 | Cc1ccccc1-c1nc(Cn2c(=O)cc(-c3ccccc3)c3c(C)nn(C)c32)c(C)o1 | 1.47%
62 | CCOc1nc(C)ccc1-c1noc(-c2cccc(OC)c2)n1 | -1.33%
63 | O=[N+]([O-])c1ccc(S(=O)(=O)N2CCN(c3ccc(F)cc3)CC2)cc1 | 2.22%
64 | O=C(O)c1ccc2c(c1)C(=O)N(c1ccccn1)C2=O | 1.64%
65 | Cc1cc(C)c(-c2c(O)nc3c(c2O)C(=O)CC(C)(C)C3)c(C)c1 | -1.06%
66 | Cc1ccc(S(=O)(=O)NCC23CC4CC(CC(C4)C2)C3)cc1 | -0.712%
